Assay results from article PMC4598844.
Results are given in words; binding and its absence hold for the method and conditions named. Binding seen in cells or lysates may run through a third protein. Some entries that bind do so weakly or less than the wild type.

The chains behind the UniProt entries cited, without tags or fusion partners. Where a name states a change or a piece, a line headed by the entry shows the natural chain unless it says otherwise.
UniProt Q92560: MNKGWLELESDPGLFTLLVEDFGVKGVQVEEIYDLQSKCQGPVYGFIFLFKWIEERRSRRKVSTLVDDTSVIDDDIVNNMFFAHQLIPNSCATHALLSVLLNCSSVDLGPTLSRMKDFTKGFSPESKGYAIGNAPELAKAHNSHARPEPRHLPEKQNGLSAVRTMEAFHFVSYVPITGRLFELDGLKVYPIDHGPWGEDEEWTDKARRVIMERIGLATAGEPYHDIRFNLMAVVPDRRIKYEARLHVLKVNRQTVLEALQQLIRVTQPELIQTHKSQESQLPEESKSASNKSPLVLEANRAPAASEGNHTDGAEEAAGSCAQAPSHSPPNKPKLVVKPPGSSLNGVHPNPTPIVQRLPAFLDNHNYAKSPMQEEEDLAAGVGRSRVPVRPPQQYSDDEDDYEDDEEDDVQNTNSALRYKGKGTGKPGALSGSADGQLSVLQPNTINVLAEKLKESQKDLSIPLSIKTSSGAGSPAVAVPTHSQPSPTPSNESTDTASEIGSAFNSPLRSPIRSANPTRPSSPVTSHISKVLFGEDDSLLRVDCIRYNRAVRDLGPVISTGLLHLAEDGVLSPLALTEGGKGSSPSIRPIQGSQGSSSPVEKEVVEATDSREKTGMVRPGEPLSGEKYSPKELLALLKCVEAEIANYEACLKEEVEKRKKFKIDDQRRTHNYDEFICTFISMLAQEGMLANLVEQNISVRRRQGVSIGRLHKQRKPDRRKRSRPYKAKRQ
UniProt Q13887: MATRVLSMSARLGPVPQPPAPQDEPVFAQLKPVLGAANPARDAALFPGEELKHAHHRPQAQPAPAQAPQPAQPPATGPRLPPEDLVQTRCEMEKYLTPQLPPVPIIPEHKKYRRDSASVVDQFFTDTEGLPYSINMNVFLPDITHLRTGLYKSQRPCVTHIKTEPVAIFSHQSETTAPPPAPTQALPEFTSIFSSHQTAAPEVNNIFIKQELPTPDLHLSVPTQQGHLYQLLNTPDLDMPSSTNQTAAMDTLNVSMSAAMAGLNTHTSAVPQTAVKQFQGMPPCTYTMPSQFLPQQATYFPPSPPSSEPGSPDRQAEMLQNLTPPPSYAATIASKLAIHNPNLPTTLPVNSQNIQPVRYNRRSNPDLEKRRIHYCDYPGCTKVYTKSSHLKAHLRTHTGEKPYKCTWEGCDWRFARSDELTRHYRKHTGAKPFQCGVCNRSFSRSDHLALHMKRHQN
UniProt P01106: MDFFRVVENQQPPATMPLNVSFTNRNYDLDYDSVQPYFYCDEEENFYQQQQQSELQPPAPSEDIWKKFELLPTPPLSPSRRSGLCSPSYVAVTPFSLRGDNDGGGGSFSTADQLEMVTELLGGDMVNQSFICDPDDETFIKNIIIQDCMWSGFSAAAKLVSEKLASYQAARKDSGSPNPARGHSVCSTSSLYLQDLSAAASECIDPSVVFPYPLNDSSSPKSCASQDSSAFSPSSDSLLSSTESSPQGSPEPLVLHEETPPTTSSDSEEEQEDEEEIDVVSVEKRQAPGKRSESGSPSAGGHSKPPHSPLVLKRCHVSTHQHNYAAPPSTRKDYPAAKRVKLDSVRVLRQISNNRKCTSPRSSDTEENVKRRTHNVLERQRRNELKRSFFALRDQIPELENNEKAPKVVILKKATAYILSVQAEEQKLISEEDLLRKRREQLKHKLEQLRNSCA

Tests used:
[1] = biological target: endogenous BAP1 (human (endogenous in MCF10A and HCC1806)) (UniProt Q92560); experiment: co-IP; endogenous proteins; HCC1806 cell lysates immunoprecipitated with the anti-BAP1 antibody, IgG as negative control; partners detected by WB
[2] = biological target: GST-fused full-length BAP1 (1–729) (human) (UniProt Q92560); experiment: pull-down; Flag-tagged full-length or deletion constructs of KLF5 and GST-BAP1 transfected into HEK293FT cells; GST-BAP1 pulled down with glutathione beads; KLF5 proteins detected by WB
[3] = biological target: KLF5-3 × Flag, full-length KLF5 (1–457) (human) (UniProt Q13887); experiment: co-IP; GST-fused full-length or deletion constructs of BAP1 co-expressed with KLF5-3 × Flag in HEK293FT cells; KLF5-3 × Flag immunoprecipitated with Flag-M2 beads; BAP1 proteins detected by WB
[4] = biological target: KLF5-3 × Flag, full-length KLF5 (1–457) (human) (UniProt Q13887); experiment: co-IP; KLF5-3 × Flag and BAP1 co-transfected into HEK293FT cells; KLF5 immunoprecipitated with anti-Flag (Flag-M2 beads); partners detected by WB
[5] = biological target: endogenous BAP1 (human (endogenous in MCF10A and HCC1806)) (UniProt Q92560); experiment: co-IP; endogenous proteins in MCF10A cells; BAP1 immunoprecipitated with the anti-BAP1 antibody, IgG as negative control; KLF5 detected by WB; also with serum stimulation

binding [2] | binding [3] | Substance | further results
 |  | c-Myc protein, endogenous (from UniProt P01106 1-454) | binding [1]: no binding
no binding |  | KLF5-3 × Flag middle part (201–372) (from UniProt Q13887 201-372) (domain or fragment) | 
 | no binding | GST-fused middle part of BAP1 (241–596) (from UniProt Q92560 241-596) (domain or fragment) | 
binds |  | KLF5-3 × Flag, full-length KLF5 (1–457) (from UniProt Q13887 1-457) | 
binds |  | KLF5-3 × Flag N terminus (1–200) (from UniProt Q13887 1-200) (domain or fragment) | 
 | binds | GST-fused BAP1 C terminus (597–729) (from UniProt Q92560 597-729) (domain or fragment) | 
 |  | BAP1 (BRCA1-associated protein 1), exogenous (from UniProt Q92560 1-729) (enzyme) | binding [4]: binds
binds |  | KLF5-3 × Flag N terminus (1–372) (from UniProt Q13887 1-372) (domain or fragment) | 
 |  | endogenous KLF5 (from UniProt Q13887 1-457) | binding [1]: binds; binding [5]: binds
 | binds | GST-fused full-length BAP1 (1–729) (from UniProt Q92560 1-729) (enzyme) | 
binds |  | KLF5-3 × Flag C terminus (373–457) (from UniProt Q13887 373-457) (domain or fragment) | 
binds |  | KLF5-3 × Flag C terminus (201–457) (from UniProt Q13887 201-457) (domain or fragment) | 
 | binds | GST-fused BAP1 N terminus (1–240) (from UniProt Q92560 1-240) (domain or fragment) | 
